The text below walks through data of publication PMC6919601, “Identification of Plasmodium dipeptidyl aminopeptidase allosteric inhibitors by high throughput screening” (PLoS ONE, 2019).

The campaign covered roughly 110,000 compounds. About 230 (0.21%) showed an effect of 50% or more. This is one part of the list.
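Also: 30 min substrate incubation versus DMSO and 10 µM JCP410 controls.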

For the assay, the target named is DPAP1 (Plasmodium falciparum, UniProt Q8IIJ9). The assay is described as follows: primary screen, percent inhibition; read by cleavage of a fluorogenic dipeptide substrate; higher = more effect of the substance. Also on record: species or system P. falciparum D10 trophozoite lysates; single well.
Sequence of DPAP1 (Q8IIJ9 whole entry, looked up): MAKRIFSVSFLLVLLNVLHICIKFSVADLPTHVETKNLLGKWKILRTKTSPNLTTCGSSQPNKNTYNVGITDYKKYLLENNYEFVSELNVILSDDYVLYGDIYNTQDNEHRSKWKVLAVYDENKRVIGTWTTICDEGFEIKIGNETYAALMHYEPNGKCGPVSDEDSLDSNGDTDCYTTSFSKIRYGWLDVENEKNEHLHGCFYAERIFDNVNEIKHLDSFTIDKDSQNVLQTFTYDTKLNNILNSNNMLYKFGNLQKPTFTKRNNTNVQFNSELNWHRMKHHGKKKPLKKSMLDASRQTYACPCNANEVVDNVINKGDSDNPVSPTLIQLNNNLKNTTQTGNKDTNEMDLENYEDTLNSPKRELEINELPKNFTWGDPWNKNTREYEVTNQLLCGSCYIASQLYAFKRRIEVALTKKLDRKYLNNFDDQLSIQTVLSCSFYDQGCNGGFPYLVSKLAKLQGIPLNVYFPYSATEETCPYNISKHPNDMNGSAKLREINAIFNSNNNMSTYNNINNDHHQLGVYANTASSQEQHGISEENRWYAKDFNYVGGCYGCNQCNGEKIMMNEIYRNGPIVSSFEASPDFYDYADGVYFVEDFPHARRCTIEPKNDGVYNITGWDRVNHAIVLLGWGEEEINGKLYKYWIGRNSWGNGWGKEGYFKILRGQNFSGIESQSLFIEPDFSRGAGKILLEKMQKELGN
Turning to `CCN(CC)S(=O)(=O)c1cc(C(N)=O)ccc1Br`, the “% Inhibition @ 10 uM” value is reported as 10.7%.

`N#CC1=C(SCc2ccccc2)NC(=O)CC1c1ccc(Cl)cc1Cl` (stereo not shown): the “% Inhibition @ 10 uM” value was -4.98%.

Consider `Cc1ccc(C)c(NS(=O)(=O)c2ccc(NC(=O)CN3C(=O)c4cccc5cccc3c45)cc2)c1`, for which the “% Inhibition @ 10 uM” value is recorded as 1.62%.

For the compound `N=c1ccn(Cc2ccccc2Cl)cc1`, the “% Inhibition @ 10 uM” value worked out at 1.55%.

On to `O=C(CCN1N=C(c2ccccc2)CCC1=O)NCCCN1CCOCC1`, for which the “% Inhibition @ 10 uM” value was -6.4%.

For the compound `COc1cccc(C(=O)Nc2ccc(C)c(Cl)c2)c1`, the “% Inhibition @ 10 uM” value is on record as 1.71%.

For `CC(=O)C(C#N)c1ccc(Cl)cc1` (stereo not shown), the “% Inhibition @ 10 uM” value was -2.54%.

Turning to `COc1ccc(C2(C(=O)Nc3ccc(F)cc3)CCOCC2)cc1OC`, the “% Inhibition @ 10 uM” value was -0.171%.

Consider `Cc1ccc(/C=C2/C(=N)N3C(=NC2=O)SN=C3S(=O)(=O)CC(C)C)o1`, for which the “% Inhibition @ 10 uM” value turned out to be 0.163%.

As to `COc1ccc(C(C#N)C(C)=O)cc1` (stereo not shown), the “% Inhibition @ 10 uM” value turned out to be 3.24%.

With `Cc1nc2ncnn2c(C)c1CCC(=O)N1CCN(C(=O)c2ccco2)CC1`, the “% Inhibition @ 10 uM” value was -2.25%.

For `COc1ccc(CNC(=O)CNS(=O)(=O)c2ccc3nc(C)sc3c2)cc1`, the “% Inhibition @ 10 uM” value is -2.45%.

Regarding `COc1ccc(CNC(=O)CN(c2cc(Cl)cc(Cl)c2)S(=O)(=O)c2ccccc2)cc1`, the “% Inhibition @ 10 uM” value is on record as 0.795%.

Consider `CCCCOC(=O)COc1cc(=O)oc2ccccc12`, for which the “% Inhibition @ 10 uM” value came to 6.47%.

On to `COc1ccc2c(c1)C(=O)C(C1(O)C(=O)Nc3ccccc31)CC2` (stereo not shown), for which the “% Inhibition @ 10 uM” value is -0.622%.

As for `O=C1c2ccccc2C(=O)N1Cc1ccc(S(=O)(=O)NC2CCCCCCC2)cc1`, the “% Inhibition @ 10 uM” value is on record as -3.48%.

For the compound `COc1ccc(C(=O)/N=c2\sc3c(n2C)-c2ccccc2CC3)cc1OC`, the “% Inhibition @ 10 uM” value is reported as -4.02%.

Regarding `Cc1cc(C)nc(Nc2n[nH]c(COc3ccc(Cl)cc3)n2)n1`, the “% Inhibition @ 10 uM” value was 4.58%.

`CC(C)(C)C(=O)Nc1ccccc1C(=O)Nc1ccccc1Br`: the “% Inhibition @ 10 uM” value was determined as 3.8%.

Regarding `COc1ccc(C(=O)Nc2cc(C)c(C)cc2O)cc1`, the “% Inhibition @ 10 uM” value is recorded as -7.69%.

Regarding `COc1ccc(OC)c(CNCc2c(C(=O)O)n(Cc3ccccc3C)c3cc(OC)ccc23)c1`, the “% Inhibition @ 10 uM” value is listed as 0.616%.

Turning to `Cc1cc(NCCN2CCCCC2)c2ccc3ccccc3c2n1`, the “% Inhibition @ 10 uM” value was -2.14%.

For the compound `OCC1CCCCN1Cc1ccsc1` (stereo not shown), the “% Inhibition @ 10 uM” value was 2.22%.

`COc1ccc(CCNC(=O)c2ccc3c(SCC(=O)O)c4c(nc3c2)CCCC4)cc1OC`: the “% Inhibition @ 10 uM” value worked out at 4.15%.

As to `C=CCNC(=O)/C=C/c1ccc(OC)c(OC)c1`, the “% Inhibition @ 10 uM” value is 1.25%.

For `O=C(c1cccc(C(=O)N2CCCc3ccccc32)c1)N1CCCc2ccccc21`, the “% Inhibition @ 10 uM” value is recorded as -3.8%.

For the compound `CCOC(=O)c1cc(-c2ccc(OC)cc2)n(CCC(=O)N2CCn3c2nc2ccccc23)c1C`, the “% Inhibition @ 10 uM” value is recorded as -0.668%.

`Cc1ccccc1Cn1cc(CCCC(=O)O)c2ccccc21`: the “% Inhibition @ 10 uM” value was determined as 15.6%.

As for `Cc1ccnc(NC(=O)Cn2ncc3c2-c2cc(C)ccc2OC3)c1`, the “% Inhibition @ 10 uM” value is reported as -0.405%.

Consider `CC(C)C[C@@H](C(=O)NC1(C#N)CC1)c1cccc(-c2ccc(N3CCN(CC(F)(F)F)CC3)cc2)c1`, for which the “% Inhibition @ 10 uM” value is 1.7%.

On to `Cc1ccc(C2=N/C(=C\c3ccc4c(c3)OCO4)C(=O)O2)cc1`, for which the “% Inhibition @ 10 uM” value is recorded as 1.47%.

Take `CCC(C)c1ccccc1OCC(=O)Nc1ccccc1C#N` (stereo not shown): the “% Inhibition @ 10 uM” value is on record as -1.89%.

Consider `OC1CCCN(Cc2ccccc2Br)C1` (stereo not shown), for which the “% Inhibition @ 10 uM” value is recorded as -2.81%.

Regarding `CS(=O)(=O)c1ncc(Cl)c(C(=O)N(Cc2ccccc2)c2ccccn2)n1`, the “% Inhibition @ 10 uM” value was -6.85%.

On to `CC12CN3CC(c4ccccc4)(CN(C1)C3c1ccc(F)cc1)C2=O` (stereo not shown), for which the “% Inhibition @ 10 uM” value was -3.08%.

As to `COc1ccc2cc(Br)ccc2c1CC(=O)Nc1ccc(Cl)cn1`, the “% Inhibition @ 10 uM” value is -0.25%.

Consider `CC1CCN(C(=O)CSc2nnc(Cc3cccn3C)n2-c2cccc(C(F)(F)F)c2)CC1`, for which the “% Inhibition @ 10 uM” value was found to be 0.44%.

As to `COc1ccc(-c2cs/c(=N\c3ccccc3)n2CCCN(C)C)cc1`, the “% Inhibition @ 10 uM” value is recorded as -7.34%.

Take `COc1cc(N)c(C)cc1NC(C)=O`: the “% Inhibition @ 10 uM” value was determined as 0.912%.

Regarding `CC1CCN(S(=O)(=O)c2ccc(-c3ccc(S(=O)(=O)N4CCC(C)CC4)cc3)cc2)CC1`, the “% Inhibition @ 10 uM” value amounted to 4.93%.

With `COCCCN1COc2ccc3c(C)c(Cc4ccccc4)c(=O)oc3c2C1`, the “% Inhibition @ 10 uM” value is reported as 0.723%.

For the compound `CCOc1ccc(C(=O)Nc2ccccc2F)cc1Br`, the “% Inhibition @ 10 uM” value worked out at 2.44%.

`CCC(=O)Nc1ccc(Cl)c(-c2nc3ncccc3o2)c1`: the “% Inhibition @ 10 uM” value is reported as 5.12%.

Turning to `CCC(C)N1C(=O)S/C(=C/c2cc3c(cc2OC)OCO3)C1=O` (stereo not shown), the “% Inhibition @ 10 uM” value was found to be 1.86%.

For `CCCCCc1nnc(NC(=O)Nc2[nH]c(C)c(C(=O)OCC)c2C)s1`, the “% Inhibition @ 10 uM” value is listed as -0.671%.

As for `CCOC(=O)c1cnc2c(Cl)c(Cl)ccc2c1NCCN(C)C`, the “% Inhibition @ 10 uM” value is recorded as -6.86%.

For the compound `Cc1ccc(C(=O)Nc2ccc3c(c2)OCO3)cc1`, the “% Inhibition @ 10 uM” value is on record as -3.44%.

For `CC(C)OCCCNC(=O)CCCCCNc1nc(S)nc2ccccc12`, the “% Inhibition @ 10 uM” value is reported as -4.1%.

For the compound `CCc1ccc(-c2nc(CSCC(=O)NCCc3ccc(OC)c(OC)c3)c(C)o2)cc1`, the “% Inhibition @ 10 uM” value stood at 0.689%.

Take `O=C1Sc2ccccc2C1=O`: the “% Inhibition @ 10 uM” value is -1.99%.

Regarding `CCCCNC(=O)c1nn2c(c1Cl)NC(c1ccccc1)CC2C(F)(F)F` (stereo not shown), the “% Inhibition @ 10 uM” value is reported as -0.142%.

With `CCOc1ccc(-c2nc(O)c3c(n2)Oc2ccc(C(=O)OC)cc2C3)cc1`, the “% Inhibition @ 10 uM” value is reported as 3.92%.

For the compound `C=CCN1C(=O)C(CC(=O)Nc2ccc(C)cc2C)S/C1=N\c1ccc(C(C)=O)cc1` (stereo not shown), the “% Inhibition @ 10 uM” value was -5.67%.

Take `Cc1cccc(-n2nc(C)c3c(C)cc(=O)oc32)c1`: the “% Inhibition @ 10 uM” value is -6.94%.

On to `CCCCOc1ccc(S(=O)(=O)N2CCN(C)CC2)cc1`, for which the “% Inhibition @ 10 uM” value was 1.88%.

In the case of `Cc1nn(-c2ccccc2)c2c1C(c1ccc(Br)s1)C(C#N)=C(N)O2` (stereo not shown), the “% Inhibition @ 10 uM” value is listed as -7.34%.

Turning to `COc1ccc(C)cc1N(CC(=O)N1CCCCCC1)S(=O)(=O)c1ccccc1`, the “% Inhibition @ 10 uM” value was found to be 5.39%.

Consider `CS(=O)(=O)N(CC(=O)N1CCN(c2ccccc2)CC1)c1ccccc1Br`, for which the “% Inhibition @ 10 uM” value stood at 2.43%.

For the compound `CC1CCCN(C(=O)c2nc(-c3ccc(Cl)cc3)n3c2CCCCC3)C1` (stereo not shown), the “% Inhibition @ 10 uM” value is given as 5.92%.

In the case of `O=c1c2c3c(sc2n2c(S)nnc2n1-c1ccccc1)CCCC3`, the “% Inhibition @ 10 uM” value worked out at 1.04%.

In the case of `N#CCNC(=O)[C@H](Cc1ccc(Cl)cc1Cl)NC(=O)OCc1ccccc1`, the “% Inhibition @ 10 uM” value is 1.35%.

As for `CCO/C(O)=C1\C(C)=NC(=S)NC1c1cn(-c2ccccc2)nc1-c1ccc(OC)cc1` (stereo not shown), the “% Inhibition @ 10 uM” value was -3.75%.

For `O=S1(=O)CCC(S(=O)(=O)N2CCOCC2)C1` (stereo not shown), the “% Inhibition @ 10 uM” value was found to be 0.937%.

As to `CC(=O)C1=C(C)Nc2sc(C(N)=O)c(N)c2C1c1cccnc1` (stereo not shown), the “% Inhibition @ 10 uM” value is -0.267%.
